Some of the results follow. These are noisy estimates, calculated here from bound and input reads.
target: T1, Pho4 (S. cerevisiae) (UniProt P07270); test: relative binding free energy (BET-seq); higher = weaker binding; details: reference: library average
T1 sequence: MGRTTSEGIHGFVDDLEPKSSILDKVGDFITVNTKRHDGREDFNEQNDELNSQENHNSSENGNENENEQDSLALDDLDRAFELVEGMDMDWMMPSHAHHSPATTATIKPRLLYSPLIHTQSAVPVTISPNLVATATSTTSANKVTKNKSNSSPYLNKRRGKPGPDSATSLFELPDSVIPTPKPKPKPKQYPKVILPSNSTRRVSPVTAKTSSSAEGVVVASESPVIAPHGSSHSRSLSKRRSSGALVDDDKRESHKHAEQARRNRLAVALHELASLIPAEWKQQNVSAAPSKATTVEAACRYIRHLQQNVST

Sequence | relative binding free energy [kcal/mol]
AGAAGCACGTGTGTGC | -0.07
ATGTCCACGTGTAGGG | 0.01
GTTCCCACGTGGGGGT | -0.26
GAACGCACGTGATGGT | 0.17
TAATTCACGTGGGTCA | 0.12
AAGTCCACGTGGGTTG | -0.12
TTGTTCACGTGTAAGG | 0.27
TAGAGCACGTGCTTGT | -0.23
AATGGCACGTGTGGCG | -0.09
GATGTCACGTGGTGGA | 0.13
AACGGCACGTGGGCTG | -0.21
GATTTCACGTGCTGTT | 0.35
ATCGTCACGTGAGGTC | 0.27
GGTGTCACGTGATAGT | 0.3
GTGATCACGTGGTACG | 0.07
GGTAACACGTGTGTCG | 0.08
TTAATCACGTGCAGGT | 0.28
AGGTCCACGTGTAAGG | 0.34
TAGTTCACGTGTTGGT | 0.27
GGCCTCACGTGGGTGG | -0.04
TGCATCACGTGTGAGG | 0.14
CGCCGCACGTGGGGTG | -0.36
GTAATCACGTGTTTTG | 0.16
GCGGTCACGTGCGGGA | 0.21
ATGTACACGTGGGGAG | -0.1
TGCAACACGTGATTTT | 0.23

Sequence | relative binding free energy [kcal/mol]
AAGTTCACGTGCAAGG | 0.25
ATGATCACGTGGTCTG | -0.07
GTGCTCACGTGGTGGC | 0.33
GGTGGCACGTGTCGGC | 0.01
TGAATCACGTGTTTCG | 0.15
TCATGCACGTGGGAGA | 0.08
GGTCGCACGTGAAGGG | 0.26
GGGGTCACGTGTAACG | 0.33
TGGGTCACGTGCAGCT | 0.02
CAGGGCACGTGTCATG | -0.02
CTTAGCACGTGGTTAA | -0.18
GGCGGCACGTGGTAGT | -0.2
AGGGGCACGTGGGTGA | -0.21
TGACTCACGTGGTATT | 0.25
GTCTGCACGTGAGGCT | 0.34
TAGCTCACGTGGTATG | 0.06
TGACTCACGTGGTGGC | 0.21
TTGCTCACGTGTTGGT | 0.29
TTCTTCACGTGAAATT | 0.49
GTAGGCACGTGGAGGA | -0.02
TTGTTCACGTGGCAGA | 0.2
TTGGGCACGTGGTAAT | 0.01
TTTTACACGTGTCGGT | 0.11
AGGATCACGTGGTGGA | 0.11
TTTCTCACGTGTGGAA | 0.16
AGGAGCACGTGTGGTT | 0.05

Sequence | relative binding free energy [kcal/mol]
TTTTACACGTGGAAAA | 0.23
TGCGGCACGTGGGCGG | -0.33
GGGAACACGTGGAGTT | 0.04
ATTGGCACGTGAGAGC | 0.14
GAGTACACGTGGGCGT | 0.03
TGTGACACGTGTAGCA | 0.01
ATTTACACGTGAGGTT | 0.33
AATTTCACGTGGGGAT | 0.17
TCTTACACGTGGGGCT | 0.02
ATGGACACGTGGAGTC | 0.12
GTGGTCACGTGAGGGA | 0.38
CTGCACACGTGGGGTT | -0.08
GTATTCACGTGGCAGG | 0.17
TTAAACACGTGTTTAG | -0.06
CGTTACACGTGGGCGT | -0.06
TCGTGCACGTGGTGCT | 0
GTTTTCACGTGTGGCA | 0.42
CCGTGCACGTGTTTTT | 0.03
CATGTCACGTGTATGG | 0.18
TTGGACACGTGGGCTC | 0.08
CTAGTCACGTGGTGGC | -0.02
CTTTTCACGTGAAGAT | 0.4
TCGTTCACGTGGTCTT | 0.15
AGGTACACGTGAACGG | 0.25
TTGGGCACGTGTAAGT | 0.13
CTTTTCACGTGTCAGT | 0.29

Sequence | relative binding free energy [kcal/mol]
TGTTACACGTGTACGG | 0.18
CTGGTCACGTGTGCGT | 0.15
TTGGACACGTGATGCA | 0.14
TTGGACACGTGAGAAT | 0.31
AGTTGCACGTGCGGCG | -0.03
TTTCGCACGTGTGGGA | 0.02
GGGTACACGTGGGTGC | -0.08
TGTTTCACGTGTTTTA | 0.31
CAGGGCACGTGTTTGT | -0.14
GCGGTCACGTGGCAGG | 0.09
ATAAACACGTGTGCGT | -0.03
ATCTGCACGTGTAGGT | -0.05
AATGTCACGTGTTTGC | 0.06
GGAATCACGTGGAGTT | 0.2
AAGATCACGTGGATGG | 0.06
CGGTACACGTGGATGT | 0.09
GGGTCCACGTGAAAGG | 0.25
AATCGCACGTGATTGT | 0.09
CTAGTCACGTGGTTTT | -0.05
CGGGTCACGTGGTTGG | 0.11
GGGGTCACGTGCGAGC | 0.14
TGAAGCACGTGTCGGT | -0.1
AGTGCCACGTGCGGTT | -0.31
GGGGGCACGTGCATGT | -0.21
GAAGTCACGTGATTTT | 0.37
AGTTGCACGTGTCAGT | 0.13

Sequence | relative binding free energy [kcal/mol]
TTGGGCACGTGATAGG | 0.1
TTAGACACGTGCTGCT | 0.12
ATTAGCACGTGGAAGG | 0
TGATACACGTGTAGGC | 0.06
CTAGGCACGTGTGGTA | -0.19
TTCCTCACGTGTTAGT | 0.25
TTTTCCACGTGTAATA | 0.13
TGAGTCACGTGAGTAA | 0.2
CATTTCACGTGAAGTA | 0.51
GATTTCACGTGAAGTA | 0.37
TTGTGCACGTGAGAGT | 0.14
TTGCCCACGTGTGGTG | -0.15
AGCGTCACGTGGGCGA | 0
TGTGGCACGTGCGTGG | -0.08
AGATGCACGTGGGGGC | -0.24
CATTTCACGTGTTGGA | 0.08
GAGTTCACGTGATCGG | 0.4
GTGGACACGTGGCGGC | -0.08
TGACGCACGTGGGCTT | -0.17
CTGTACACGTGGATGT | 0.2
CTGTTCACGTGATTAT | 0.26
GTTTACACGTGTCTGG | 0.15
GCAGGCACGTGGGATG | -0.08
ATTTGCACGTGTGACG | 0.02
GTAATCACGTGTGCTG | 0.01
GGAGGCACGTGAAATG | 0.15

Sequence | relative binding free energy [kcal/mol]
AGCGGCACGTGGGTTA | -0.19
ACTGTCACGTGGGCAG | -0.04
GGGGCCACGTGGTCGT | -0.1
TGTACCACGTGGTTCG | -0.02
AATATCACGTGTTGTC | 0.26
GGGTTCACGTGTATAT | 0.32
TGTTACACGTGGGGCC | 0.05
GTTTACACGTGGGATA | 0.03
AGCGGCACGTGTTGGG | -0.08
TGTAGCACGTGTTACT | 0.12
CCGTTCACGTGGGGGG | 0.14
TTAGTCACGTGCCTGG | -0.03
ACTTTCACGTGGATGT | 0.17
GGAGTCACGTGGGAGG | 0.06
TGCTTCACGTGATAGG | 0.32
CTTGACACGTGTGTTC | 0.14
AGAGGCACGTGAATGG | 0.04
ACGGCCACGTGTGGGG | -0.09
TATGGCACGTGTTATG | -0.05
GGCAGCACGTGAGATG | 0.23
TATTACACGTGTTTAA | -0.09
GCGTGCACGTGGCTGT | -0.19
AGAGCCACGTGCGGGT | -0.16
TGCTGCACGTGTGGAT | -0.01
AGCGACACGTGTCGGT | 0.14
TGTAGCACGTGTATAT | 0.01

Sequence | relative binding free energy [kcal/mol]
ATTTACACGTGTTAGA | 0.19
ATAAACACGTGATTGG | 0.1
GAGTGCACGTGTTCAT | 0.04
TTTGTCACGTGTGCCT | 0.1
GGTGCCACGTGGTTGT | -0.06
GATTGCACGTGTGCCG | 0.17
AAGTACACGTGAGTGT | 0.27
TTAATCACGTGGGGCA | -0.05
TAGATCACGTGTATCG | 0.22
TTTCTCACGTGCTGGA | 0.23
GGTATCACGTGTAATC | 0.4
CTGGTCACGTGTTGAA | 0.21
TGTCGCACGTGAGAGA | 0.22
GTCTTCACGTGGAGTT | 0.3
AGTCGCACGTGTGAGT | 0.03
GGGTGCACGTGCTCGG | -0.1
AGGGTCACGTGCGGTA | -0.16
TGCAGCACGTGTATAG | -0.13
GGTGGCACGTGTGTGC | -0.09
GTGTACACGTGGTTAG | 0.01
AGCGTCACGTGGTGAA | 0.06
CGGGGCACGTGTTGAT | 0.04
TTGGACACGTGATAAT | 0.22
AGTTCCACGTGGTGTA | -0.04
GTAAGCACGTGTTGGA | -0.07
TTGTGCACGTGGTTGC | -0.02

Sequence | relative binding free energy [kcal/mol]
GTTGGCACGTGCGGCT | -0.06
GTGTGCACGTGCTTGA | -0.14
GGATTCACGTGATGCG | 0.3
AAGTGCACGTGTCGTT | -0.03
AGGGGCACGTGACATG | -0.09
TTTGGCACGTGGAGAA | -0.01
GGGGCCACGTGCGGGC | -0.22
TTTGGCACGTGAGGAG | 0.23
GGTCTCACGTGTTTGA | 0.35
TGTTACACGTGTAATA | 0.13
GGGAGCACGTGTATCG | -0.16
TAGCGCACGTGATTGG | 0.06
GTGGTCACGTGCGTGT | 0.04
AGGTCCACGTGTTGAA | 0.15
TGGAGCACGTGCGGGG | -0.04
CTTGCCACGTGAGGTT | 0.11
ACGGCCACGTGGGGGG | -0.29
TCTGTCACGTGGAGCT | 0.1
TGGGTCACGTGACGTC | 0.18
GTTTACACGTGAAGGC | 0.42
TAAGGCACGTGTTGGC | -0.12
TGTAGCACGTGTGCGA | -0.11
GGGGACACGTGATAGG | 0.23
GAGTGCACGTGTCTTA | 0.06
AGTATCACGTGGGGGT | 0.02
TTGGACACGTGGTCTG | 0.04

Sequence | relative binding free energy [kcal/mol]
CATTGCACGTGGTCGT | 0.02
AAAGTCACGTGGACGG | 0.15
TTCGCCACGTGGGGGA | -0.07
GGTTGCACGTGTTTTG | 0.03
GTTCACACGTGTGTTG | 0.13
GAAGACACGTGGGTCG | -0.01
TGGGTCACGTGTGGGG | 0.19
AGAAGCACGTGTAGAT | 0.25
TCGTTCACGTGCTGTT | 0.43
CTTTTCACGTGTATTA | 0.07
ATCTACACGTGAGTGG | 0.37
GTTAGCACGTGTGAGG | 0.07
GGTTACACGTGCGGGT | 0.19
GAGTGCACGTGGAGCT | 0.04
TAGGGCACGTGTGAGT | -0.04
TAAATCACGTGTAGTT | 0.24
TGCGCCACGTGTGAGT | -0.04
AGTGGCACGTGTGACA | 0.11
ATGGCCACGTGGGGGA | -0.17
TATGGCACGTGAGCAT | 0.06
TCGAGCACGTGGGTGT | -0.18
TACTGCACGTGGGTTG | -0.33
